Source: publication PMC6919601, “Identification of Plasmodium dipeptidyl aminopeptidase allosteric inhibitors by high throughput screening” (PLoS ONE, 2019)
Screen size: about 110,000 compounds; about 230 (0.21%) showed an effect of 50% or more. Some of the results follow.

Molecular target: DPAP1 (Plasmodium falciparum, UniProt Q8IIJ9)
Assay: primary screen, percent inhibition; read by cleavage of a fluorogenic dipeptide substrate; higher = more effect of the substance
Design: species or system P. falciparum D10 trophozoite lysates; single well
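Note: 30 min substrate incubation versus DMSO and 10 µM JCP410 controls.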

Chain of DPAP1 (Q8IIJ9 whole entry, looked up): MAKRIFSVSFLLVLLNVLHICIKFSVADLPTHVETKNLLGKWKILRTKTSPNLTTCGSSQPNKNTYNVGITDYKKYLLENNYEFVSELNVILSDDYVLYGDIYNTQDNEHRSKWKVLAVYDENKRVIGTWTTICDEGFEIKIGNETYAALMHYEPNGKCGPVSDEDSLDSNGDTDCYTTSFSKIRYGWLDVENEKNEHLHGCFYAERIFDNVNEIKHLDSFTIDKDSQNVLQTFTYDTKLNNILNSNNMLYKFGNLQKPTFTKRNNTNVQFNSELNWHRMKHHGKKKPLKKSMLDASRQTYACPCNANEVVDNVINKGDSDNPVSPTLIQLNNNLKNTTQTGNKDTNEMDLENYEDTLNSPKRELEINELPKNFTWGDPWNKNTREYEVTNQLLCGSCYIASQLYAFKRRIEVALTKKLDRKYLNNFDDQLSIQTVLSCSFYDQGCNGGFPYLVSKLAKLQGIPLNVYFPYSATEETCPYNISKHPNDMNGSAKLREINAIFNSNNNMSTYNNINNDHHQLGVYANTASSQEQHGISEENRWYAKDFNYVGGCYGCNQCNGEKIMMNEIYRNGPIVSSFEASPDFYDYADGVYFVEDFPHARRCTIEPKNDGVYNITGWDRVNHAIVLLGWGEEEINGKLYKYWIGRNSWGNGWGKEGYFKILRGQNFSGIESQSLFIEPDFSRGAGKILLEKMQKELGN

Compound | % Inhibition @ 10 uM [%]
N#CC1=C(N)N(c2ccc(F)cc2)C2=C(C(=O)CCC2)C1c1ccc(Br)s1 (centres unmarked) | 2.67
OCCn1c(-c2ccc(F)cc2)cs/c1=N\c1ccccc1 | 0.431
Cc1cc(C=C2C(=O)c3ccccc3C2=O)c(C)n1-c1ccc(F)cc1 | 3.04
Clc1ccc(-c2cc(-c3cc(-c4ccc(Cl)cc4)[nH]n3)[nH]n2)cc1 | -0.902
CCN(CC)CCCNC(=O)CCC(=O)N1Cc2ccccc2Oc2ncccc21 | 4.52
COc1cc(C(=O)O)c(CNC(=O)CSc2nnnn2C)c(OC)c1OC | 1.31
CC1(C)OC2c3ccccc3OC3(C)CCC1CC23 (centres unmarked) | -1.8
CCCN1C(=O)S/C(=C\c2ccc(N3CCOCC3)cc2C)C1=O | 9.94
CCC(C)NC(=O)Cn1cnc2scc(-c3ccc(C)cc3)c2c1=O (centres unmarked) | -5.66
CCCc1nnc2sc(NC(=O)c3cccc(C)c3)nn12 | 1.68
CCN(CC)C(=O)c1cc2c(Cl)nc3ccc(C)cc3c2s1 | 3.2
CC(C)C(NC(=O)CSc1ccc(Cl)cc1)C(C)C | -2.21
CCOC(=O)N1CCN(C(=O)/C(=C\c2cccs2)NC(=O)c2ccc(OC)c(OC)c2)CC1 | 0.484
COc1ccc2[nH]c3c(=O)n(CCCCCC(=O)N4CCCC4)c(=S)[nH]c3c2c1 | 10.2
CCOC(=O)c1c(C)nc(C)nc1N | 0.937
C=CCNC(=O)c1ccccc1NC(=O)CN1C(=O)c2ccccc2S1(=O)=O | 4.57
O=CN1CCN(CC2CC=CCC2)CC1 (centres unmarked) | 10.1
CC(C(=O)NCCCc1ccccc1)n1c2ccccc2c2cnnc(O)c21 (centres unmarked) | -3.79
COc1ccc(CCc2nc(C)ccc2O)cc1OC | -6.59
CN(Cc1ccccc1)C(=O)CNS(=O)(=O)c1ccc(F)cc1 | 10.8
CCOC(=O)N1CCC(N2CCN(c3ccc([N+](=O)[O-])cc3)CC2)CC1 | 1.88
Cc1ccc(C2C=C(c3ccc(Br)cc3)Nc3ncnn32)c(C)c1 (centres unmarked) | -1.62

Compound | % Inhibition @ 10 uM [%]
CCN(Cc1ccccc1)C(=O)c1cccs1 | 3.53
COc1ccc(C2Oc3c(OC)cccc3C3CC(c4cccnc4)=NN32)cc1 (centres unmarked) | -1.46
O=C(OCC1OC(n2ccc(=O)[nH]c2=O)C(O)C1O)c1ccccc1 (centres unmarked) | -8.12
COC(=O)/C=C/CSc1nnc(-c2ccc(Cl)cc2Cl)o1 | -0.703
Cc1ccc(C(=O)Nc2nc(-c3ccc(Br)cc3)cs2)o1 | 6.87
Cc1c(C(=O)NCc2ccnn2C)c(-c2ccccc2)nn1-c1ccccc1 | 5.31
CCOC(=O)N1CCN(C(=O)c2cc(-c3ccc(C)c(C)c3)nc3ccccc23)CC1 | 0.955
O=C(CCNc1c(N2CCCC2)c(=O)c1=O)N1CCCCC1 | 1.68
O=C(CCCc1ccccc1)Nc1ccc(Br)cc1 | 4.15
OC1CCN(Cc2ccc(F)c(Br)c2)CC1 | 0.605
CCCC(=O)Nc1ccc(N2CCOCC2)cc1 | 0.0504
Cc1ccccc1CS(=O)(=O)CCC(=O)NCc1ccc2c(c1)OCO2 | -3.58
COc1ccc(Br)cc1CNC(=O)C1CCCN(S(C)(=O)=O)C1 (centres unmarked) | 0.514
CC(C)C[C@H](NC(=O)c1ccc(Nc2nc(-c3ccncc3)cs2)cc1)C(=O)NCC#N | 7.39
CC(NC1CC(=O)N(c2ccccc2)C1=O)C12CC3CC(CC(C3)C1)C2 (centres unmarked) | -8.46
O=C(c1ccccc1)N1CCN(c2ccccc2)CC1 | -0.856
COc1cccc(-c2cc(C(=O)NC3CCCc4ccccc43)[nH]n2)c1 (centres unmarked) | 0.713
COc1cc(Br)c(/C=C2\Sc3ccccc3C2=O)cc1OC | 4.07
Cc1cc(C)n(-c2cc(Oc3ccccc3C)ncn2)n1 | -1.55
O=C(c1cccnc1)N1CCN(C(=O)c2ccccc2F)CC1 | 2.3
O=C(c1cnn2c(C(F)(F)F)cc(-c3cccs3)nc12)N1CCCC1 | 1.16
CN(C)CCC(=O)N1c2ccccc2Sc2ccccc21 | -2.47

Compound | % Inhibition @ 10 uM [%]
Cc1cc(C)c2c3c(sc2n1)C(c1ccc(F)cc1F)C(C#N)=C(N)O3 (centres unmarked) | 3.62
CC(C)=CC[C@H](NC(=O)OCc1ccccc1)C(=O)NCC#N | -6.46
NC(=O)c1ccccc1NC(=O)Cc1ccc(Br)cc1 | 9.17
COc1ccc(OC)c(-n2c(SCC(=O)NC3CCCC3)nnc2-c2c[nH]c3ccccc23)c1 | -4.97
Cc1ccc(OCCSc2nc3c(N)nc[n+](Cc4ccccc4)c3[nH]2)cc1 | 2.08
Cc1nc2c(ccc3ccsc32)s1 | 1.72
Cc1cc(-c2[nH]nc3c2C(c2ccc(Br)cc2)C(C#N)=C(N)O3)c(C)s1 (centres unmarked) | -2.78
COc1ccc(-c2nc(N)c3c4c(sc3n2)CCCC4)cc1 | -1.07
COCCOC(=O)C1=C(C)NC(=O)NC1c1ccccc1O (centres unmarked) | 1.58
COc1ccc(CN2CCN(C(=O)c3ccc(OC)c(OC)c3)CC2)c(OC)c1 | 1.82
CCOC(=O)c1c(NS(=O)(=O)c2ccc(C3CNC(=O)C3)cc2)sc2c1CCCC2 (centres unmarked) | 3.68
Cc1cc(C)c(S(=O)(=O)NCc2ccncc2)c(C)c1 | 1.74
COc1ccc(S(=O)(=O)N2CCCC(C)C2)cc1 (centres unmarked) | -4.4
N#C/C(=C\c1ccc([N+](=O)[O-])cc1)c1nc(-c2ccc(-c3ccccc3)cc2)cs1 | 2.13
CCCN(Cc1ccc([N+](=O)[O-])cc1)CC1CC1 | -1.5
CCOC(=O)c1ccccc1NC(=O)c1ccc(C(C)C)cc1 | 2.03
Cn1c(=O)[nH]c(=O)c2c1nc(CN1CCOCC1)n2Cc1ccc(F)cc1 | -4.69
COc1ccc(Br)c2c1-c1nc(NC(=O)c3ccccc3)sc1C2 | 1.62
CCNC(=O)C12CCC(C)(c3nc4cc(C)c(C)cc4nc31)C2(C)C (centres unmarked) | -2.74
Nc1c(-c2nc(-c3ccccc3)cs2)c2ccccn2c1C(=O)c1cccs1 | -0.958
CC(=O)NS(=O)(=O)c1ccc(NC(=O)c2cc(-c3ccc(Cl)cc3)nc3ccccc23)cc1 | 6.61
